According to article PMC12922740 (Science Advances, 2026):

Target: C3b (human, UniProt P01024 23-667; P01024 part only)
Test: cryo-EM structure

Chain of UniProt P01024 (P01024 23-667, chain 1 of 2): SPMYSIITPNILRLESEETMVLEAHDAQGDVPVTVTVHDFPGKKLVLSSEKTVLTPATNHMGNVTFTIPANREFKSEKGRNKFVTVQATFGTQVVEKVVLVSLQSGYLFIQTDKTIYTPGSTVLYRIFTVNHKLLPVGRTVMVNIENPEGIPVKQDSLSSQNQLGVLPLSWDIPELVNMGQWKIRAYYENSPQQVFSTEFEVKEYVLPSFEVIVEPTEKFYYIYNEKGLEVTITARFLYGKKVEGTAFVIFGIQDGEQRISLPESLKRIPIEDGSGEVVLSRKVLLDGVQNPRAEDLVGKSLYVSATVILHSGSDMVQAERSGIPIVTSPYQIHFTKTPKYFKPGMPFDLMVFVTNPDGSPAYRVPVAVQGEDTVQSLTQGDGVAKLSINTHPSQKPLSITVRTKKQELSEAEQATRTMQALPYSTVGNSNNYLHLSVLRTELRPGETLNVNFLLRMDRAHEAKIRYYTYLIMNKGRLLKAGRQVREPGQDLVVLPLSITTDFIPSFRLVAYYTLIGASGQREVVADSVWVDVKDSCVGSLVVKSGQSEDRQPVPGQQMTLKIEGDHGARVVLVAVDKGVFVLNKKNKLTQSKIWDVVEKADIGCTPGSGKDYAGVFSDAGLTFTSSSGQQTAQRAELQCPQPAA
Chain of UniProt P01024 (P01024 749-1663, chain 2 of 2): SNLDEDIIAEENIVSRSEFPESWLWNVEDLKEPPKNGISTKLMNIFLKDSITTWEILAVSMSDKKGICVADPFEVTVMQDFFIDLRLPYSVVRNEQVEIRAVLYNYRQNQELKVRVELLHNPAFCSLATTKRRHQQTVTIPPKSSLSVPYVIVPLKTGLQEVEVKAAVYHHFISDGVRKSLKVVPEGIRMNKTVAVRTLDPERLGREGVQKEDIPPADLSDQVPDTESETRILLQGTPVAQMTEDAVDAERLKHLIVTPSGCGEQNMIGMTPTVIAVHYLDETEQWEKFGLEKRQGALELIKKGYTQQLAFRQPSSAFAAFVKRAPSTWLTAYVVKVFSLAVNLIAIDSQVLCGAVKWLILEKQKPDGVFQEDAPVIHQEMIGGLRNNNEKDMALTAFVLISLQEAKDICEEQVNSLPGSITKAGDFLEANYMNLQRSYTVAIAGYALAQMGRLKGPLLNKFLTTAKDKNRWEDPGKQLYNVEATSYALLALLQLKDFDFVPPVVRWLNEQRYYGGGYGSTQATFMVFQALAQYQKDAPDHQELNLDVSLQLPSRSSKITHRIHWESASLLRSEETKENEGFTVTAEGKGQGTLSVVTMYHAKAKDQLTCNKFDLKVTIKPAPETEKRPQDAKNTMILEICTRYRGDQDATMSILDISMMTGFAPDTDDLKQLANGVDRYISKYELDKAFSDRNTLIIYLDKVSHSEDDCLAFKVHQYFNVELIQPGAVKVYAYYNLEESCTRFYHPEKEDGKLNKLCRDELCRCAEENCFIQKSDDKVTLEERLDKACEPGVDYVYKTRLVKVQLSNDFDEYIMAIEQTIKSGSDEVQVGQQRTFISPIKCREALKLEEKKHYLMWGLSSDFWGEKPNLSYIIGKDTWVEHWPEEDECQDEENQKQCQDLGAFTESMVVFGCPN

B1: Bb (from FB(S699A)) (domain or fragment)
chain: KIVLDPSGSMNIYLVLDGSDSIGASNFTGAKKCLVNLIEKVASYGVKPRYGLVTYATYPKIWVKVSEADSSNADWVTKQLNEINYEDHKLKSGTNTKKALQAVYSMMSWPDDVPPEGWNRTRHVIILMTDGLHNMGGDPITVIDEIRDLLYIGKDRKNPREDYLDVYVFGVGPLVNQVNINALASKKDNEQHVFKVKDMENLEDVFYQMIDESQSLSLCGMVWEHRKGTDYHKQPWQAKISVIRPSKGHESCMGAVVSEYFVLTAAHCFTVDDKEHSIKVSVGGEKRDLEIEVVLFHPNYNINGKKEAGIPEFYDYDVALIKLKNKLKYGQTIRPICLPCTEGTTRALRLPPTTTCQQQKEELLPAQDIKALFVSEEEKKLTRKEVYIKNGDKKGSCERDAQYAPGYDKVKDISEVVTPRFLCTGGVSPYADPNTCRGDAGGPLIVHKRSRFIQVGVISWGVVDVCKNQKRQKQVPAHARDFHINLFQVLPWLKEKLQDEDLGFL
  binding result: binds
